According to the supplement of paper PMC8728848:
The list shows a part of the results.

Legend:
Experiment in all cases: glycan array binding signal (z-score within array); higher = stronger binding
Conditions in all cases: glycan notation: IUPAC condensed, linker removed
[1] = target: Neu5Ac(a2-3)Gal(b1-4)GlcNAc(b1-3)[Neu5Ac(a2-3)Gal(b1-4)GlcNAc(b1-6)]GalNAc
In short: (§1)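 The binding signal is a Z-score computed within each array. Data were drawn from 3228 arrays in the Consortium for Functional Glycomics database, restricted to those with a known protein sequence. Scores were averaged over arrays of the same protein sequence at different concentrations or buffers, and over linkers, and negative values can be taken as non-binding.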

[2] = target: Neu5Ac(a2-3)Gal(b1-4)GlcNAc(b1-6)GalNAc
In short: as §1

[3] = target: Neu5Ac(a2-3)Gal(b1-4)GlcNAc(b1-6)[Gal(b1-3)]GalNAc
In short: as §1

[4] = target: Neu5Ac(a2-3)Gal(b1-4)GlcNAc(b1-6)[Neu5Ac(a2-3)Gal(b1-3)]GalNAc
In short: as §1

[5] = target: Neu5Ac(a2-3)Gal(b1-4)GlcNAc6S
In short: as §1

[6] = target: Neu5Ac(a2-3)Gal(b1-4)[Fuc(a1-3)]GlcNAc
In short: as §1

[7] = target: Neu5Ac(a2-3)Gal(b1-4)[Fuc(a1-3)]GlcNAc(b1-2)Man
In short: as §1

[8] = target: Neu5Ac(a2-3)Gal(b1-4)[Fuc(a1-3)]GlcNAc(b1-3)Gal
In short: as §1

[9] = target: Neu5Ac(a2-3)Gal(b1-4)[Fuc(a1-3)]GlcNAc(b1-3)Gal(b1-4)GlcNAc
In short: as §1

[10] = target: Neu5Ac(a2-3)Gal(b1-4)[Fuc(a1-3)]GlcNAc(b1-3)Gal(b1-4)[Fuc(a1-3)]GlcNAc(b1-3)Gal(b1-4)[Fuc(a1-3)]GlcNAc
In short: as §1

[11] = target: Neu5Ac(a2-3)Gal(b1-4)[Fuc(a1-3)]GlcNAc(b1-3)GalNAc
In short: as §1

[12] = target: Neu5Ac(a2-3)Gal(b1-4)[Fuc(a1-3)]GlcNAc(b1-6)[Gal(b1-3)]GalNAc
In short: as §1

[13] = target: Neu5Ac(a2-3)Gal(b1-4)[Fuc(a1-3)]GlcNAc(b1-6)[Neu5Ac(a2-3)Gal(b1-3)]GalNAc
In short: as §1

[14] = target: Neu5Ac(a2-3)Gal(b1-4)[Fuc(a1-3)]GlcNAc6S
In short: as §1

[15] = target: Neu5Ac(a2-3)Gal6S(b1-4)GlcNAc
In short: as §1

[16] = target: Neu5Ac(a2-3)Gal6S(b1-4)[Fuc(a1-3)]GlcNAc
In short: as §1

Neu5Ac(a2-3)GalNAc = target: Neu5Ac(a2-3)GalNAc
In short: as §1

[17] = target: Neu5Ac(a2-3)GalNAc(b1-4)GlcNAc
In short: as §1

[18] = target: Neu5Ac(a2-3)[GalNAc(b1-4)]Gal(b1-4)Glc
In short: as §1

[19] = target: Neu5Ac(a2-3)[GalNAc(b1-4)]Gal(b1-4)GlcNAc
In short: as §1

[20] = target: Neu5Ac(a2-3)[GalNAc(b1-4)]Gal(b1-4)GlcNAc(b1-3)GalNAc
In short: as §1

[21] = target: Neu5Ac(a2-3)[Neu5Ac(a2-6)]GalNAc
In short: as §1

Neu5Ac(a2-6)Gal = target: Neu5Ac(a2-6)Gal
In short: as §1

[22] = target: Neu5Ac(a2-6)Gal(b1-3)GlcNAc(b1-3)[Gal(b1-4)GlcNAc(b1-6)]Gal(b1-4)Glc
In short: as §1

Neu5Ac(a2-6)Gal(b1-4)Glc = target: Neu5Ac(a2-6)Gal(b1-4)Glc
In short: as §1

[23] = target: Neu5Ac(a2-6)Gal(b1-4)GlcNAc
In short: as §1

[24] = target: Neu5Ac(a2-6)Gal(b1-4)GlcNAc(b1-2)Man
In short: as §1

[25] = target: Neu5Ac(a2-6)Gal(b1-4)GlcNAc(b1-2)Man(a1-3)Man(b1-4)GlcNAc(b1-4)GlcNAc
In short: as §1

[26] = target: Neu5Ac(a2-6)Gal(b1-4)GlcNAc(b1-2)Man(a1-3)[Gal(b1-4)GlcNAc(b1-2)Man(a1-6)]Man(b1-4)GlcNAc(b1-4)GlcNAc
In short: as §1

[27] = target: Neu5Ac(a2-6)Gal(b1-4)GlcNAc(b1-2)Man(a1-3)[GlcNAc(b1-2)Man(a1-6)]Man(b1-4)GlcNAc(b1-4)GlcNAc
In short: as §1

[28] = target: Neu5Ac(a2-6)Gal(b1-4)GlcNAc(b1-2)Man(a1-3)[GlcNAc(b1-4)][Neu5Ac(a2-6)Gal(b1-4)GlcNAc(b1-2)Man(a1-6)]Man(b1-4)GlcNAc(b1-4)GlcNAc
In short: as §1

B1: PX9961A-pdi-456-24-456 (Parabacteroides distasonis) (protein)
chain: KTSSTQLPTIDAISSVADLTNAVNGVYEQQATEVGSYGAEFTLLADLRSGDFQSISTVNHAGPMYRYQTGKNDEMVYSFYKLFYNSLARLNNVLAAAENLEGADVDILKGELYAMRALYHFDLARVFAKLPSTTDMNDLGIVLSTEVYPTDYIGTRATLQQTYDQILKDIETALPLLSKDKQTGHINYWGALAIRARAYLYLEKNKEALADCKEIIASSPYKLYTRDEYIGAWDKEGTNEAIFEILVTPNYNAQRNSIGYFTHASGYGECAATESFLEELAKHPGDIRTELFAKETDNGYDGTYPQKYKGRDGQIYVNNPKVVRLSEVYLIAAEAALKAGDTSAAAGYMNTLRKNRIENYTDVASITLDDILLERRLELFTEGHTAWDAWRNGKSVNNKFVGEVKPGDYRTIMAIPIGEITVSRGQLIQNPGY
- glycan array binding signal (z-score) [1]: -0.095
- glycan array binding signal (z-score) [2]: 0.101
- glycan array binding signal (z-score) [3]: -0.242
- glycan array binding signal (z-score) [4]: 0.08
- glycan array binding signal (z-score) [5]: -0.019
- glycan array binding signal (z-score) [6]: -0.27
- glycan array binding signal (z-score) [7]: -0.398
- glycan array binding signal (z-score) [8]: -0.497
- glycan array binding signal (z-score) [9]: 0.573
- glycan array binding signal (z-score) [10]: -0.096
- glycan array binding signal (z-score) [11]: 1.11
- glycan array binding signal (z-score) [12]: 0.332
- glycan array binding signal (z-score) [13]: 0.273
- glycan array binding signal (z-score) [14]: -0.012
- glycan array binding signal (z-score) [15]: -0.307
- glycan array binding signal (z-score) [16]: -0.24
- glycan array binding signal (z-score) (Neu5Ac(a2-3)GalNAc): -0.483
- glycan array binding signal (z-score) [17]: -0.364
- glycan array binding signal (z-score) [18]: 0.11
- glycan array binding signal (z-score) [19]: -0.489
- glycan array binding signal (z-score) [20]: 0.641
- glycan array binding signal (z-score) [21]: -0.477
- glycan array binding signal (z-score) (Neu5Ac(a2-6)Gal): -0.046
- glycan array binding signal (z-score) [22]: -0.617
- glycan array binding signal (z-score) (Neu5Ac(a2-6)Gal(b1-4)Glc): 0.433
- glycan array binding signal (z-score) [23]: -0.245
- glycan array binding signal (z-score) [24]: -0.372
- glycan array binding signal (z-score) [25]: -0.293
- glycan array binding signal (z-score) [26]: 0.305
- glycan array binding signal (z-score) [27]: -0.47
- glycan array binding signal (z-score) [28]: -0.202
